Laboratory results from PubChem BioAssay (NCI).
Values joined by “and” are separate entries in the source; they are usually repeats but may differ in a detail not shown here. Equal entries are not always repeated.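 Protocol summary: plate cells (96-well), add compound at 5 concentrations, incubate 48 h, interpolate endpoints linearly. GI50 is the concentration that inhibits growth by half. TGI: concentration producing complete growth inhibition.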

Tested on: NCI-H322M lung
Test: DTP human tumour cell line panel, 48 h

Structure (SMILES)	TGI	GI50
O=c1oc2c(ccc3occc32)c(N2CCCCC2)c1-c1ccccc1	> 100 µM	–
Cc1nc2ccc(N=Nc3c(O)ccc4ccccc34)cc2[nH]1	> 100 µM	–
CCN1CCN(CCNc2nccc(-c3c(-c4cccc(O)c4)nc4sccn34)n2)S1(=O)=O	32.5 µM and > 100 µM	21.5 µM and 11.2 µM
O=C(O[C@H]1CN[C@H](C#Cc2cc3ncnc(Nc4ccc(Cc5ccccc5)cc4)c3s2)C1)N1CCOCC1	> 25 µM	3.85 µM
O=S1Cc2ccccc2CS1 (stereo unspecified)	> 100 µM	–
Cc1nc(NC(=O)COc2cccc(/C=C3\COc4ccccc4C3=O)c2)sc1C	12.3 µM	4.42 µM
CC1C(=O)CCC1C(Sc1ccccc1)(Sc1ccccc1)Sc1ccccc1 (stereo unspecified)	> 100 µM	–
NC(CCc1ccccc1)(C(=O)O)c1ccccc1 (stereo unspecified)	> 100 µM	–
CC(C)=C1C(=O)C[C@]2(C)C/C=C(\C)CC/C=C(\C)CC[C@@H]12	> 50 µM	–
O=C(/C=C\c1cccc([N+](=O)[O-])c1)c1ccccc1	37.3 µM	16.9 µM
COc1ccc(C2=C(Br)C(=O)OC2)cc1Cl	65.3 µM	21.9 µM
